# Measurements published in paper PMC5584178.
# By UniProt entry, the sequences of proteins in these tests, tags left out. Where a name states a change or a piece, a line headed by the entry shows the natural chain unless it says otherwise.
# UniProt P40235: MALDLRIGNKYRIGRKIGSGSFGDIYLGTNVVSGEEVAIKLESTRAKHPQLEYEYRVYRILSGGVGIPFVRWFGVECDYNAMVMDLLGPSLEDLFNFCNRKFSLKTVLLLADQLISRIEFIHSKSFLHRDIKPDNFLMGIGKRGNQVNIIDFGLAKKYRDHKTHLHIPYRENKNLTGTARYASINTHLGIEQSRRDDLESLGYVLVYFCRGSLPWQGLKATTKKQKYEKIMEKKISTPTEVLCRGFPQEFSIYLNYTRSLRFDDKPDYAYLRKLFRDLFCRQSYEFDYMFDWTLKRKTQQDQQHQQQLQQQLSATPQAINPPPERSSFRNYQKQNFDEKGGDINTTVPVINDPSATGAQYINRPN
# Residue numbers refer to the chain shown, from its start. Numbers in names are those of the source. No constants are given. Whether binding was seen depends on the method and setting. For part of these data: Binding seen in cells or lysates may run through a third protein. Some results given as binding are weak or reduced against the parent protein; the word gives no strength. Sequences can lack the tags named with a protein.
# T1: GFPn.Sid4(466–660) (fission yeast) (UniProt O60187)
# T1 sequence: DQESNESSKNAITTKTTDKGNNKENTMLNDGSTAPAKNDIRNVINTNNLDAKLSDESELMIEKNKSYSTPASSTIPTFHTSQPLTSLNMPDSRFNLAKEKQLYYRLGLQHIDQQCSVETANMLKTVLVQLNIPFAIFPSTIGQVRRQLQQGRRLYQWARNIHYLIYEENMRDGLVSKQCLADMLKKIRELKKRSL
# T2: GFPn.Sid4(466–660) T584V (fission yeast) (UniProt O60187)
# T2 sequence: T1 sequence with T119V
# T3: CK1δ^Hhp2, two-hybrid fusion (fission yeast) (UniProt P40236)
# T3 sequence: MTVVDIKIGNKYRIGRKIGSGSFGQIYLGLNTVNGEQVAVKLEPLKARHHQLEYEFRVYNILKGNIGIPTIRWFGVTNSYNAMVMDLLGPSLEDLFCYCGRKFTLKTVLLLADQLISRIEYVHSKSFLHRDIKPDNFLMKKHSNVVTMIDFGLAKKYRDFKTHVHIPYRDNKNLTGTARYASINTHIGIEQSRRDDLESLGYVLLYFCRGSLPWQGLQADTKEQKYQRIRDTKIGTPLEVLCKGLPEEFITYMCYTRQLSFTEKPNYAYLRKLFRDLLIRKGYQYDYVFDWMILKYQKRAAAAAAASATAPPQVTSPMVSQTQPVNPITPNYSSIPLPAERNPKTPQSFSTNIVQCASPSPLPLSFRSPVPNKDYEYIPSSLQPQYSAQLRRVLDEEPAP
# T4: Ppc89, two-hybrid fusion (fission yeast) (UniProt Q10218)
# T4 sequence: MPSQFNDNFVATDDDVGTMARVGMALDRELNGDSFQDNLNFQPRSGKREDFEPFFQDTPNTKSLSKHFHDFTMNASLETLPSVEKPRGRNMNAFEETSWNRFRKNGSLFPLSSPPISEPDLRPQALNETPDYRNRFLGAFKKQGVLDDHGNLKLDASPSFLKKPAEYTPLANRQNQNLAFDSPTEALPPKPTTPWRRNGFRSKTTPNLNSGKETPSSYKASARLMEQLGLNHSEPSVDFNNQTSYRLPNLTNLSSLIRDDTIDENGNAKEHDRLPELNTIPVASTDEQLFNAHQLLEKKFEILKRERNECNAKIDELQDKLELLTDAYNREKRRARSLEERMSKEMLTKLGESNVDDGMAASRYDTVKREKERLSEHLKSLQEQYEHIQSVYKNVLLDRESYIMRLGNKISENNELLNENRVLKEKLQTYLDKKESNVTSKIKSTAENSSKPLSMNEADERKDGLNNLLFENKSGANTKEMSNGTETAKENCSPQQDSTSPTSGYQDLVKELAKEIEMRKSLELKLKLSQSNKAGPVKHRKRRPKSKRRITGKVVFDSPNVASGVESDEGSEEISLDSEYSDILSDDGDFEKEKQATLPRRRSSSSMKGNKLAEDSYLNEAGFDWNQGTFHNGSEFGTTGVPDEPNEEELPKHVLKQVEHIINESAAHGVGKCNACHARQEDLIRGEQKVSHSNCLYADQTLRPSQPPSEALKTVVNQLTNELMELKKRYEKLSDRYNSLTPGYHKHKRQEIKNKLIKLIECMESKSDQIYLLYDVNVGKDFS
# T5: Chk2^Cds1.GFP (fission yeast) (UniProt Q09170)
# T5 sequence: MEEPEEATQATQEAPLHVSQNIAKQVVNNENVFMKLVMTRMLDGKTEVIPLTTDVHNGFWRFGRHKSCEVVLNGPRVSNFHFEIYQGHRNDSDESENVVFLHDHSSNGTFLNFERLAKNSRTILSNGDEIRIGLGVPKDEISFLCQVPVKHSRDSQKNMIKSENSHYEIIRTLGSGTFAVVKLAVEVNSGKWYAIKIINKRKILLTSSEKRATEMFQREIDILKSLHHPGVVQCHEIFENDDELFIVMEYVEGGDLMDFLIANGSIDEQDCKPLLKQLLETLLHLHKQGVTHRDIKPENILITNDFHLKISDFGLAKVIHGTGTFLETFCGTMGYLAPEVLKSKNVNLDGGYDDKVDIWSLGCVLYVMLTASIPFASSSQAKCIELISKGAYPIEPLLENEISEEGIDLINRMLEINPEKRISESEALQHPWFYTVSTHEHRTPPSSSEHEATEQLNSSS
# B1: Ppc89.3Pk (protein, UniProt Q10218 1-783)
# chain: T4 sequence
# B2: C-terminal fragment of Sid4 (466–660 aa) T584E, two-hybrid fusion (domain or fragment, UniProt O60187 466-660)
# chain: T1 sequence with T119E
# B3: C-terminal fragment of Sid4 (466–660 aa) T584D, two-hybrid fusion (domain or fragment, UniProt O60187 466-660)
# chain: T1 sequence with T119D
# B4: C-terminal fragment of Sid4 (466–660 aa) T584A, two-hybrid fusion (domain or fragment, UniProt O60187 466-660)
# chain: T1 sequence with T119A
# B5: Sid4 (protein, UniProt O60187 1-660)
# chain: MDEAFGDSLSTDYRWLGHSHFDSHPSAGDSIYFDSLDEDADPSRTARIDRIAELLDGLNDEQISELVNGVNSTTIKENTKKEISNPNDSTRLPLEQIPGSNNLFLDPRHQLGDNSQNAQRHHEPSFNSEKASYTSTPYKNVAPKVIDSPSARHMHSNSPSFPPSQSHTSSYDQSPKGQLRDNISVPNQQDGLDPEVFNQQSKETKKSLQVPPSRNVPPPVTRPNQYNPEPNFSLSSGYPQQHFSQPELQNRNVHLETVPESYPVPPSGYPLTSSTCVSSISQPIQSTDCQKAQENLSNNKQMSSNDQDIDPFKQAITDLPPSFVNIVLEMNATIQSLSNQCQQRDKQIENITKQLLMNQQDYCPTTMSTTVSTPLCPPKRFPKSTKDFKEQKPDTKQVRSATISNDFNLKGNGRYNEKSQIAVPSEIRVQLSTLDAILLQFEHLRKELTQARKEIQILRHTSQNGDQESNESSKNAITTKTTDKGNNKENTMLNDGSTAPAKNDIRNVINTNNLDAKLSDESELMIEKNKSYSTPASSTIPTFHTSQPLTSLNMPDSRFNLAKEKQLYYRLGLQHIDQQCSVETANMLKTVLVQLNIPFAIFPSTIGQVRRQLQQGRRLYQWARNIHYLIYEENMRDGLVSKQCLADMLKKIRELKKRSL
# B6: Sid4.T275ES278D (protein, UniProt O60187 1-660)
# chain: B5 chain with T275E, S278D
# B7: C-terminal fragment of Sid4 (466–660 aa), two-hybrid fusion (domain or fragment, UniProt O60187 466-660)
# chain: T1 sequence
# B8: C-terminal fragment of Sid4 (466–660 aa) T584V, two-hybrid fusion (domain or fragment, UniProt O60187 466-660)
# chain: T1 sequence with T119V
# B9: Sid4.T275AS278A (protein, UniProt O60187 1-660)
# chain: B5 chain with T275A, S278A
# How the values were obtained:
# [1] = molecular target: T1, GFPn.Sid4(466–660) (fission yeast); experiment: co-IP; GFP-tagged Sid4(466-660) fragments precipitated with GFP-Trap-M from S. pombe lysate in IP1 buffer (50 mM Tris-Cl pH 8, 50 mM NaCl, 0.5% triton-X100); Ppc89.3Pk detected by Western blot with antibody to the Pk epitope
# [2] = molecular target: T2, GFPn.Sid4(466–660) T584V (fission yeast); experiment: as above
# [3] = molecular target: CK1δ^Hhp1, two-hybrid fusion (fission yeast) (UniProt P40235); experiment: two-hybrid; Matchmaker Gold system, pGADT7 in Y187 crossed with pGBKT7 in Y2HGold; diploids plated on SD-Trp-Leu and SD-Trp-Leu-His, 30°C, 2-3 d
# [4] = molecular target: T3, CK1δ^Hhp2, two-hybrid fusion (fission yeast); experiment: as above
# [5] = molecular target: T4, Ppc89, two-hybrid fusion (fission yeast); experiment: as above
# [6] = molecular target: T5, Chk2^Cds1.GFP (fission yeast); experiment: co-IP; Chk2^Cds1.GFP precipitated with GFP-Trap-MA from cryo-ground S. pombe dma1.Δ cells in IP2 buffer (50 mM Hepes pH 7.5, 150 mM NaCl, 0.2% triton X-100); Sid4 detected by Western blot with Sid4 antibodies
Binder,binding [3],binding [4],binding [5],binding [6],further results
B1,–,–,–,–,binding [1]: binds; binding [2]: binds
B2,binds,binds,–,–,–
B3,binds,binds,–,–,–
B4,binds,binds weakly,binds,–,–
B5,–,–,–,binds,–
B6,–,–,–,binds,–
B7,no binding,no binding,binds,–,–
B8,no binding,no binding,binds,–,–
B9,–,–,–,no binding,–
